Reference: publication PMC6919601, “Identification of Plasmodium dipeptidyl aminopeptidase allosteric inhibitors by high throughput screening” (PLoS ONE, 2019)
Among all 110,000 compounds or so, about 230 (0.21%) showed an effect of 50% or more. Some of the results follow.

Biological target: DPAP1 (Plasmodium falciparum, UniProt Q8IIJ9)
Test: primary screen, percent inhibition; read by cleavage of a fluorogenic dipeptide substrate; higher = more effect of the substance
Set-up: species or system P. falciparum D10 trophozoite lysates; single well
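Also: 30 min substrate incubation versus DMSO and 10 µM JCP410 controls.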

DPAP1, sequence (Q8IIJ9 whole entry, looked up): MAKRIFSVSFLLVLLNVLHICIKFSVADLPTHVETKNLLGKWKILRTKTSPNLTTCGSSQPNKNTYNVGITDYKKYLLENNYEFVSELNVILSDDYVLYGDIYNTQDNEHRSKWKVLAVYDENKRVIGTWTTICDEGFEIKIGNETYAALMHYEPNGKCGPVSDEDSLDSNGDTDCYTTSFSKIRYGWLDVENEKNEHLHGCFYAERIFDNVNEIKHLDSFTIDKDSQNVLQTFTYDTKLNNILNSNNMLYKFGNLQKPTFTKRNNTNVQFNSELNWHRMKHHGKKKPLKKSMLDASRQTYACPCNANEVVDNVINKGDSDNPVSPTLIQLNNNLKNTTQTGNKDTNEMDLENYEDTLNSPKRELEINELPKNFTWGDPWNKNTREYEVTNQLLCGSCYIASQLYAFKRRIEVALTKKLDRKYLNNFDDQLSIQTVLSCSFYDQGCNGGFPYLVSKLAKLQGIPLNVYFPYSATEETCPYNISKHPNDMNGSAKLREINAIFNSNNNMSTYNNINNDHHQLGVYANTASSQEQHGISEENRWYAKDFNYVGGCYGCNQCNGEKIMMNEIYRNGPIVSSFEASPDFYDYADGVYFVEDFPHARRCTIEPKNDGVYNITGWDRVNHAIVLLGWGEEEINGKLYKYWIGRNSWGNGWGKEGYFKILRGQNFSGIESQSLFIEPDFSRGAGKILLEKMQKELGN

SMILES	% Inhibition @ 10 uM [%]
O=C1c2ccccc2C(=O)N1CCNCCN1C(=O)c2ccccc2C1=O	10.7
COC(=O)/C=c1\sc2nc(N)nn2c1=O	-2.14
COc1ccccc1CNC(=O)c1c2c(nn1C)-c1ccccc1SC2	8.62
CCCCC(=O)N1c2ccccc2C(Nc2ccccc2)CC1C (stereo not shown)	4.08
O=C(Nc1cccc(O)c1)c1cccc(S(=O)(=O)N2CCOCC2)c1	4.82
Cc1ccsc1C(=O)N1CC(C)CC(C)C1 (stereo not shown)	0.727
Cc1ccc(C(=O)Nc2cccc(C(=O)O)c2C)cc1C	0.83
Cc1onc(-c2ccccc2)c1C(=O)N1CCOCC1	0.00784
COc1ccc(C2C(C(=O)c3ccccc3)=C(O)C(=O)N2CO)cc1 (stereo not shown)	-3.49
CCOC(=O)C(/C=N/c1ccc(Cl)cn1)=C(/O)OCC	0.0719
CN1CCC(NCCc2ccc(Cl)cc2)CC1	3.18
Cc1ccccc1Cn1cc(CCCC(=O)NCc2cccnc2)c2ccccc21	0.244
Cc1ccc(NC(=O)c2[nH]cnc2C(=O)Nc2ccc(C)cc2C)cc1	1.78
COc1ccc(CNC(=O)C2CCN(S(=O)(=O)c3ccc(-n4cnnn4)cc3)CC2)cc1	3.88
c1ccc(CCN2CCC(N3CCCC3)CC2)cc1	4.54
O=C(O)c1ccc2c(c1)C(=O)N(c1nccs1)C2=O	-1.74
CCOc1ccccc1CNc1nc2nc(C)c(Cc3ccccc3)c(O)n2n1	-9.95
COc1ccc(OC)c(S(=O)(=O)NCc2ccc(C)cc2)c1	3.89
O=C(C1=C(O)C(=O)N(Cc2ccco2)C1c1cccs1)c1ccc(F)cc1 (stereo not shown)	-5.83
CC1CN(C(=O)c2ccc3c(c2)OCO3)OC(c2cccnc2)O1 (stereo not shown)	0.121
COc1ccc(C(=O)Nc2ccc(NC(=O)c3cccc(C)c3)cc2)cc1	1.89
COc1cccc2c1cc1c(=O)n(CC(=O)N3CCC(Cc4ccccc4)CC3)nc(C)n12	3.29
CCn1nc(/C=C\c2ccccc2)nc2c(=O)n(C)c(=O)nc1-2	-1.11
COc1ccc(C2C(C#N)=C(N)Oc3c2c(=O)oc2ccccc32)cc1O (stereo not shown)	-3.48
COCCNC(=O)c1ccc(Cn2c(SCc3ccc(F)cc3)nc3cccnc32)cc1	4.43

SMILES	% Inhibition @ 10 uM [%]
c1cncc(CN2CCN(Cc3ccco3)CC2)c1	-1.44
Cc1cc(NC(=O)C2CCCN(c3ncnc4onc(C)c34)C2)no1 (stereo not shown)	-5.09
COc1ccc(C2C(C(=O)c3ccccc3)=C(O)C(=O)N2CCNC(C)=O)cc1 (stereo not shown)	2.18
O=C(NC1CCOCC1)N1CCN(c2ncccn2)CC1	6.92
O=C(Nc1cccc2ccccc12)N1CCN(Cc2ccc3c(c2)OCO3)CC1	-3.04
Cc1cc(C)c(C2C(C#N)=C(N)OC3=C2C(=O)CC(C)(C)C3)c(C)c1 (stereo not shown)	2.62
O=C(C1CCC(CNS(=O)(=O)c2ccc(Br)s2)CC1)N1CCCCCC1 (stereo not shown)	-0.668
O=C(Cn1ncc2c3ccccc3n(Cc3ccccc3)c2c1=O)NCCc1ccccc1	-3.35
Cc1ccc2[nH]c(/C(C#N)=C/c3cc(Cl)cc(Cl)c3O)nc2c1	-4.03
N#CCCN(C1CCCCC1)S(=O)(=O)c1ccc(-c2ccc([N+](=O)[O-])cc2)cc1	-9.31
OCCNCc1cc(Cl)ccc1OCc1ccc(Cl)cc1Cl	-3.5
O=c1c2c(-c3ccccc3)csc2nc2c3ccccc3c(NCC3CCCO3)nn12 (stereo not shown)	5.54
CCOC(=O)c1cc2c(=O)n3ccccc3nc2n(Cc2ccco2)/c1=N/C(=O)c1ccc(C)cc1	-4.67
O=C(NCCOc1ccccc1Cc1ccccc1)c1cccnc1	0.9
N=C1/C(=C\c2coc3ccccc3c2=O)C(=O)N=C2SC=NN12	-0.495
COc1ccc(OC)c(SC[C@H]2CCCC[C@H]2C(=O)NCC#N)c1	-1.41
c1csc(-c2ncc3ccccn23)c1	1.32
COc1ccc(S(=O)(=O)N2CCSC2c2cc(Br)ccc2OC)cc1C (stereo not shown)	-1.98
CSc1nnc2c(n1)[nH]c1ccc(C)cc12	2.51
Cc1ccc(S(=O)(=O)N(CCCN(C)C)Cc2ccc3c(c2)OCO3)cc1	-3.13
Cc1ccc(C(=O)Nc2ccc(S(=O)(=O)N3CCCCC3)cc2)cc1Br	3.58
Nc1ccc(CCC(=O)N2CCCC2)cc1	-3.04
CC1C(=O)CCN(C)C1c1ccccc1 (stereo not shown)	3.31
Cc1nc2c(C(=O)NCc3ccccc3Cl)cnn2c(C)c1Cc1ccc(Cl)cc1	4.47
